The full ranking holds about 33,000 sequences; the median of “E-score (-0.5 to 0.5)” is about -0.01, and the highest 2% start at about 0.26. The list shows a part of the results.
The sequences below were run against Ste12 (UniProt P13574) (assay: PBM E-score (8-mer binding enrichment) (E-score (-0.5 to 0.5)); higher = stronger / more preferred TF binding; most listed sequences are background and not binding sites). Conditions: protein concentration: 200 nM; construct: GST-DNA-binding domain.
How it was run: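 Yeast transcription factors carrying a GST tag, as full-length proteins or DNA-binding domains, were produced by PURExpress in vitro transcription/translation. About 100-200 nM protein was applied to universal all-10-mer Agilent arrays, double-stranded by primer extension on fresh or once-stripped slides. Bound protein was detected with fluorescent anti-GST, and scans were normalised with masliner. The Universal PBM Analysis Suite gave each ungapped eight-base word, pooled with its reverse complement, an E-score, a modified Wilcoxon-Mann-Whitney statistic.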

Sequence	PBM E-score
CTCCTAAG	-0.199
GGGTGATA	0.189
CGAGGTCC	-0.195
AAACCTCT	0.154
ATTCCATG	0.183
GACCATCC	-0.188
AAACTGGG	0.0635
CTATGCCC	-0.0243
ATTACGCA	0.038
GATATACA	0.212
AGAGTCCG	-0.196
ACCTTGTC	-0.0492
AGAGTTCC	-0.251
ACTCCGTG	-9e-05
CCGCCATA	0.00311
ATTCTTCC	0.102
GCACACCA	0.0397
CATCTCCG	0.0711
CCCACTCC	-0.136
AAGCCACA	0.0741
TCGCGTCA	0.129
CCCGGAGC	0.0174
GTCCATTA	0.0357
AACGACCC	-0.126
GCACTATA	-0.00293

Sequence	PBM E-score
ATGTCTGC	-0.0671
AAGCTGAT	0.139
CCTATAGA	0.00311
CCCCGAAG	-0.0163
CGTATATA	-0.0636
CTCACAAG	-0.151
GAGATCAA	0.0814
AAGACCAT	0.0895
CCGGGACC	0.0129
ATGTTTCA	0.493
GAAGGGAC	-0.0933
AAAGACGA	0.0361
GGATCGCC	-0.161
GACAGGTA	-0.016
AGGGAGAG	-0.0217
GGATCAAA	0.119
GGCTACAC	-0.101
AATTTTCG	0.128
AGGACAAG	-0.131
ACAAGTAC	0.02
CACAGCAC	-0.191
CCTTGGTA	0.00972
CATTGAGG	-0.103
AGCACTAA	-0.0166
AGGTAGGC	-0.159

Sequence	PBM E-score
CACGTCGA	-0.0263
AACGCTAA	-0.0143
CTTTGGTC	0.131
CGGGATTC	0.191
CTAAATCC	0.0716
GCTTGTAA	0.0486
ATCCATGG	-0.059
AGTTCTCC	-0.165
AATATTTA	0.209
ATGCACTG	-0.0247
CTAAAAAG	0.218
CAGTGTCG	0.0375
GCCAAGGC	-0.198
AAATTCGA	0.157
GGCATTGA	-0.0352
AGATCGAC	-0.078
TCCACACA	0.134
GCAGTCAA	-0.127
AGCTGGGC	-0.161
AGCGGAAT	0.0289
CGAACGCC	-0.222
GATCATTA	0.0818
CCAAATGA	0.186
CACGATAG	-0.11
ACACGGTC	-0.0854

Sequence	PBM E-score
AGTTACAG	0.2
CCAACACC	-0.241
AAAGTGTG	0.221
AAAACTCC	0.0428
GTCGTAAA	0.0308
CGTATAGC	-0.0307
AGAACAAT	0.247
CACTACTC	0.105
ATTGGGAG	0.0972
ACCAAAGA	0.158
TAGCAATA	-0.0246
GCATATCC	-0.0226
CGTCCAGA	-0.115
CAAAGATA	0.107
TACTACCA	-0.0454
ACGTGTAC	-0.134
AGTATAAT	0.228
CTCGCCGA	-0.0805
ATCGGATC	0.0882
AGGCGTTA	0.0338
CAATCCAA	0.00782
CCGTGCAG	0.0505
GACTACTC	-0.0788
GAAGCACC	-0.164
ATCTTGCA	0.102

Sequence	PBM E-score
CCGGACAC	-0.0146
AATGACGA	-0.105
AGCGCTCA	-0.203
CCTTGTCA	-0.0771
AAATGTGA	0.146
CCTGAATA	0.177
CACACAGC	0.00497
AATATTGC	0.00435
CATAATAA	0.136
AATTGCGT	0.113
AGATACTG	-0.0238
ACTCTCAC	0.0198
AGACGGAT	0.0635
ATAGAAAA	0.101
AAGCCGCT	0.0327
CAGAGGCA	-0.161
ACCGTATA	-0.133
AGAGCAGA	-0.0287
ATATGTAC	0.0709
CGCGCACC	0.156
CGAATTCG	-0.27
GAACGCGA	0.103
AAGCTTGC	-0.0199
GGACGCTA	-0.185
ACCGCGAC	0.225

Sequence	PBM E-score
CCGTAGAA	-0.259
GGCCCATA	-0.122
GCTCAAGC	-0.184
TTAAGAAA	0.195
AAAAATAA	0.229
CACGTGGG	-0.129
AGAAAATA	0.259
CCCGGTCC	-0.152
ATTCCCGG	0.115
ACAGCGAC	-0.0562
AGGTAGAG	-0.0159
CGGCAGTA	-0.0367
TGGCCCCA	-0.094
ACTTGGGC	-0.0134
CCTAAGAG	-0.0981
AGAGAACC	-0.168
AAATCTTC	0.0263
GAATTCCA	0.122
TCCCAGGA	-0.198
GATAGAAA	0.0543
ATACGGAA	0.0484
CTAGATAG	-0.243
ACCTGCCT	-0.137
CCGATCGA	0.0564
AGTCACGC	-0.0621

Sequence	PBM E-score
AACTATTC	0.264
ACTCCACC	-0.0218
GGTGGTCA	-0.164
TGTGGAAA	0.286
ATCTTTTC	0.149
AGGCAGAG	-0.137
CCCTATTC	0.0347
AGGAGCCG	-0.135
ATTCCCGC	0.158
CCCGCTGA	-0.173
ACATAGCC	0.0232
AGAGAACA	0.0103
AAGGGGCC	-0.0465
CTGGCCAA	-0.0761
CGGCTATC	-0.174
GTTATCGA	0.203
ACTTAAAA	0.183
ATGCGCGC	0.0609
ACGGTTGC	-0.234
GTATCAAA	0.293
CCTTGGCA	-0.162
CACATTCC	-0.00353
CCCATAGG	-0.272
ACGGGAGT	-0.0255
AAGCCCTA	-0.133

Sequence	PBM E-score
CTTAACAC	-0.183
CCCTGCAA	-0.124
CAAGCGTA	-0.216
CACCTCGC	-0.139
AGTTATTG	0.034
CGCATCTA	0.112
CATGTCCC	-0.00788
AAATTATG	0.168
AGAAGTAA	0.22
ATTCTGTA	0.0407
CGACACCC	-0.0454
ACCCGCTA	0.146
GAGGTACC	-0.18
AAGTGGTC	-0.0758
CTGCCATC	-0.0221
AATCAGTG	-0.123
AATGATGC	0.039
AGCAAAAC	0.199
AGCGGATC	0.0284
AGTTTGGG	0.13
CGGATTGA	-0.0328
AACGTGAC	0.0775
CGGTAGAA	-0.142
ATTGACGG	0.00717
GATCAGCC	-0.151

Sequence	PBM E-score
TGCAATAA	0.0549
CCGTTAAG	-0.177
CTTGTAAC	0.218
AGGTTACG	-0.0449
CTCGAGTA	0.0434
AGAGGTCG	-0.112
AGCTTTTC	-0.121
CGGAGGTA	-0.0544
ATGCTTTA	-0.0956
TCCTGCGA	-0.0589
GGCGCGCA	0.183
TCGAAACA	0.395
CTTCCAGC	-0.215
CTCCTCAG	-0.11
TCCGTCGA	0.16
GTCATCGA	-0.173
CAGGGGCC	-0.274
ACTCGAGA	0.0621
GCGGGCAC	0.0726

— the supplement of paper PMC3334620
